Measurements reported in patent US5034409A, “Pyrrole carboxylic acids and esters for blood platelet aggregation inhibition” (Bristol-Myers Squibb Company, priority 1990, dated 1991).
In brackets after ≈: the same amount, converted by molar mass.

Test system: ADP-induced human platelet aggregation
Type: cell-based
Settings: human platelet rich plasma, compounds in DMSO, read-out: Inhibition of Human Platelet Aggregation IC50 vs. ADP

Compound | IC50 [µg/mL]
COC(=O)CCCCCCCCn1cc(-c2ccccc2)c(-c2ccccc2)c1 [Example 1, Methyl 3,4-diphenyl-1H-pyrrole-1-nonanoate] | 32 (≈ 82.1 µM)
O=C(O)CCCCCCCCn1cc(-c2ccccc2)c(-c2ccccc2)c1 [Example 2, 3,4-Diphenyl-lH-pyrrole-1-nonanoic Acid] | 4 (≈ 10.7 µM)
